Test results reported in the supplement of paper PMC4996465.

Tests used:
Nalm-6 = assay: viability (% of DMSO control); higher = more viable cells
Experimental: (§1)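 Eleven-dose screen of the NCATS MIPE 3 library on cells without co-treatment; CellTiter-Glo after 48 h, as % of DMSO wells.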

KB3-1 = assay: as above
Experimental: as §1

Row | Structure (SMILES) | viability (Nalm-6; run: 1, 0.00078 µM) [%] | viability (Nalm-6; run: 1, 0.00234 µM) [%] | viability (Nalm-6; run: 1, 0.00702 µM) [%] | viability (Nalm-6; run: 1, 0.0211 µM) [%] | viability (Nalm-6; run: 1, 0.0632 µM) [%] | viability (Nalm-6; run: 1, 0.19 µM) [%] | viability (Nalm-6; run: 1, 0.569 µM) [%] | viability (Nalm-6; run: 1, 1.71 µM) [%] | viability (Nalm-6; run: 1, 5.12 µM) [%] | viability (Nalm-6; run: 1, 15.4 µM) [%] | viability (Nalm-6; run: 1, 46.1 µM) [%] | viability (Nalm-6; run: 2, 0.00078 µM) [%] | viability (Nalm-6; run: 2, 0.00234 µM) [%] | viability (Nalm-6; run: 2, 0.00702 µM) [%] | viability (Nalm-6; run: 2, 0.0211 µM) [%] | viability (Nalm-6; run: 2, 0.0632 µM) [%] | viability (Nalm-6; run: 2, 0.19 µM) [%] | viability (Nalm-6; run: 2, 0.569 µM) [%] | viability (Nalm-6; run: 2, 1.71 µM) [%] | viability (Nalm-6; run: 2, 5.12 µM) [%] | viability (Nalm-6; run: 2, 15.4 µM) [%] | viability (Nalm-6; run: 2, 46.1 µM) [%] | viability (KB3-1; 0.00078 µM) [%] | viability (KB3-1; 0.00234 µM) [%] | viability (KB3-1; 0.00702 µM) [%] | viability (KB3-1; 0.0211 µM) [%] | viability (KB3-1; 0.0632 µM) [%] | viability (KB3-1; 0.19 µM) [%] | viability (KB3-1; 0.569 µM) [%] | viability (KB3-1; 1.71 µM) [%] | viability (KB3-1; 5.12 µM) [%] | viability (KB3-1; 15.4 µM) [%] | viability (KB3-1; 46.1 µM) [%]
1 | Nc1nc(-c2nn(Cc3ccccc3F)c3ncccc23)nc(N)c1N1CCOCC1 [BAY-41-8543] | -1.48 | -1.2 | -0.801 | -0.0273 | 2.99 | 18.5 | 53.8 | 64.1 | 86.4 | 94.4 | 94.7 | 103 | 106 | 106 | 113 | 106 | 111 | 109 | 112 | 113 | 114 | 112 | 102 | 96.6 | 104 | 108 | 104 | 103 | 97.1 | 96.4 | 94.5 | 97.7 | 98.1
2 | CC(C)=CCC/C(C)=C/CC/C(C)=C/CSc1ccccc1C(=O)O [Salirasib] | 94.4 | 106 | 101 | 111 | 104 | 120 | 103 | 107 | 107 | 116 | 104 | 102 | 105 | 109 | 105 | 102 | 103 | 106 | 108 | 110 | 108 | 60.9 | 101 | 96.8 | 99.1 | 100 | 103 | 98 | 97.9 | 102 | 105 | 97.9 | 98.9
3 | NC(=O)c1ccc(-c2nc(-c3ccc4c(c3)OCO4)c(-c3ccccn3)[nH]2)cc1 | 99.3 | 102 | 114 | 107 | 107 | 117 | 111 | 117 | 119 | 121 | 77.3 | 104 | 102 | 110 | 110 | 114 | 110 | 101 | 116 | 117 | 112 | 88.6 | 101 | 105 | 100 | 97.8 | 96.5 | 99.5 | 106 | 105 | 111 | 113 | 99.7
4 | CC(C)(Sc1ccc(CCN(CCCCC2CCCCC2)C(=O)NC2CCCCC2)cc1)C(=O)O [GW-7647] | 112 | 115 | 107 | 120 | 110 | 115 | 119 | 122 | 117 | 120 | 65.9 | 102 | 105 | 110 | 108 | 99.5 | 104 | 112 | 106 | 106 | 101 | 55.1 | 95.4 | 97.9 | 96.1 | 103 | 103 | 99.3 | 103 | 104 | 104 | 103 | 91.3
5 | C[C@]12CCC(=O)C(O)=C1CC[C@@H]1[C@@H]2CC[C@]2(C)C(=O)CC[C@@H]12 [Formestane] | 120 | 110 | 117 | 119 | 121 | 117 | 118 | 117 | 99.1 | 102 | 93.1 | 102 | 106 | 107 | 101 | 103 | 104 | 105 | 107 | 96.4 | 90.3 | 85 | 109 | 103 | 105 | 109 | 114 | 108 | 110 | 100 | 102 | 104 | 95.9
6 | CCOC(=O)C(C)OC1=CC=CC2=C1\C=C/N(CC(=O)NC3=CC=C4OCCOC4=C3)C2=O (centres undefined) | 87 | 98.4 | 5.91 | 103 | 100 | 103 | 100 | 97 | 107 | 107 | 68.6 | 90.7 | 97.9 | 5.12 | 98.1 | 99.7 | 99.6 | 106 | 94.2 | 97.3 | 99.1 | 101 | 103 | 108 | 69.6 | 98.8 | 97.9 | 100 | 101 | 106 | 109 | 107 | 99.6
7 | O=C(N[C@@H](c1ccccc1)[C@@H]1CCCCN1)c1cccc(C(F)(F)F)c1Cl | 107 | 100 | 110 | 109 | 110 | 110 | 110 | 101 | 103 | 102 | 2.99 | 100 | 99.7 | 105 | 105 | 103 | 107 | 105 | 107 | 104 | 98.7 | 1.69 | 104 | 99.8 | 102 | 102 | 107 | 105 | 105 | 102 | 101 | 95.7 | 9.94
8 | COc1nc(C)cnc1NS(=O)(=O)c1cccnc1-c1ccc(-c2nnco2)cc1 [Zibotentan] | 126 | 117 | 129 | 125 | 130 | 129 | 128 | 129 | 118 | 112 | 105 | 106 | 105 | 104 | 107 | 107 | 109 | 107 | 107 | 101 | 103 | 98.9 | 108 | 109 | 104 | 109 | 110 | 107 | 107 | 105 | 97 | 101 | 98.1

Viability of KB3-1 and Nalm-6 cells after 48 h of drug alone (CellTiter-Glo), 11 doses over about 4.5 log units. % of DMSO wells, lower = more cell loss; AC50 from the fitted curve, lower = more potent. No active / inactive call. Nalm-6 was screened in two runs. AC50 is listed only for well-fitted inhibitory curves. KB3-1 is a HeLa-derived carcinoma line, Nalm-6 a B-cell precursor leukaemia line.
